Measurements as given in PubChem BioAssay AID1963576 (National Center for Advancing Translational Sciences (NCATS), 2024).
About 60 (0.1%) of roughly 46,000 compounds were called active. Inconclusive results (about 3%) are left out. The call rests on the fitted dose curve; in most records, active means well fitted inhibition curve with a large enough effect; inconclusive means small, poorly fitted or top-dose-only effect; inactive means no such curve, though single readings can be large or run the other way. This is one part of the list.

Assay: Primary qHTS assay for Inhibitors of ovarian cancer metastasis using an organotypic tumor microenvironment (TME) model. Further: nearly all actives have a fitted effect of over 65% in size.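 On activity change, negative = inhibition: plate controls were DMSO wells for no effect and tomatine positive control wells for full effect.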
Details: SKOV3ip1-GFP adhesion/invasion on 3D omental model, fluorescence; series mostly up to 45.8 µM; activity change, negative = inhibition: at the top concentration
In short: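 Adhesion/invasion was scored as fixed GFP-labeled SKOV3ip1 cell counts (488/509 nm), normalized to DMSO and tomatine controls. Cancer cells in serum-free medium, with four compound doses (0.36-46 umol/L), sat 2 hr at RT then 16 hr at 37 C on a 48 hr fibroblast/mesothelial/ECM culture.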

outcome, inactive:
Cc1cccc(OCC(=O)N(Cc2ccc(C(C)(C)C)cc2)Cc2ccco2)c1
COc1ccc(-c2nc(CSc3nnc(C)n4c3cc3occc34)c(C)o2)cc1OC
CC(C)c1ccc(NC(=O)C(C)N(c2ccccc2)S(C)(=O)=O)cc1 (stereo unspecified)
COc1cc(OC)cc(C(=O)N2CCN(C(=O)COc3ccccc3)CC2)c1
CSc1ccc(CCNS(=O)(=O)c2ccc3c(c2)C(C)(C)C(=O)N3C)cc1
COc1ccc(NC(=O)CC2C(=O)N(c3cccc(C)c3)C(=O)N2Cc2cccnc2)cc1 (stereo unspecified)
CCc1ccc(CNC(=O)CN2C(=O)CSc3c2c(C)nn3-c2ccccc2)cc1
CCn1c(=O)n(-c2ccc(F)cc2)c(=O)c2sc3ccccc3c21
CCCCOc1ccc(CNC(=O)Cc2ccc(NC(=O)N3CCCCc4ccccc43)cc2)cc1
CCOC(=O)c1cc(-c2ccc(C)cc2)n(CC(=O)Nc2ccccc2F)c1C
CCOc1ccc(NC(=O)CCn2c(=O)c3cccn3c3cccnc32)cc1
CC1CCC(NC(=O)CCc2cn(Cc3ccccc3Cl)c3ccccc23)CC1 (stereo unspecified)
Cc1cc2nn(-c3ccccc3)nc2cc1NC(=O)COc1ccc(Cl)cc1
Cc1nn(-c2ccc(F)cc2)c(-n2cccc2)c1C(=O)N1CCN(c2ccccc2)CC1
COc1ccc(NC(=O)CSC2=Nc3ccccc3C3=NC(CCC(=O)NCc4cccs4)C(=O)N23)cc1 (stereo unspecified)
Cc1ccc(NC(=O)CSc2nnc(-c3cc4occc4n3C)n2-c2ccccc2C)c(Cl)c1
Cc1ccc(CN2C(=O)N(c3ccc(F)cc3)C(=O)C2CC(=O)Nc2ccc(Cl)cc2)cc1 (stereo unspecified)
CCOc1ccc(NC(=O)CSc2nc3c(oc4ccccc43)c(=O)n2-c2cc(C)cc(C)c2)cc1
CC1=C(C(=O)NCc2cccc(Br)c2)C2(CCCCC2)OC1=O
Cc1ccc(C2c3[nH]c4ccccc4c3CCN2C(=O)c2ccccc2Br)cc1 (stereo unspecified)
Cc1ccc(C(=O)Nc2c(-c3ccccc3)nc3ccccn23)cc1
CCC(C(=O)OCc1cc(=O)n2nc(C)sc2n1)c1ccccc1 (stereo unspecified)
CCOC(=O)C1CCCN(C(=O)C2CCN(S(=O)(=O)c3c(C)noc3/C=C/c3ccccc3F)CC2)C1 (stereo unspecified)
CCCN(CCC)CCCNC(=O)c1cn(CC)c2ccc(S(=O)(=O)N(C)C3CCCCC3)cc2c1=O
CCOC(=O)c1c(C)[nH]c(CCC(=O)Nc2c(C)cccc2CC)c1C

Activity change, negative = inhibition, inactive:
COc1ccc(C2C(C(=O)Nc3cccnc3)=C(C)Nc3nc(-c4ccccc4)nn32)cc1OC (stereo unspecified) -5.64%
COc1ccc(OCC(=O)NCC(c2ccc(OC)cc2)N2CCCCC2)cc1 (stereo unspecified) 0.872%
O=c1[nH]c(=O)n(C2CCCCC2)c(O)c1C1=Nc2ccccc2SC(c2ccccc2)C1 (stereo unspecified) -0.637%
CCc1ccc(-n2nc(C)c3c(C)cc(=O)n(CC(=O)Nc4ccc(C(C)=O)cc4)c32)cc1 6.05%
COCCCNc1nc(NCc2cccc(Cl)c2)c2cnn(C)c2n1 -0.637%
COc1cc(OC)c(NC(=O)N2CC3CCCN3c3ccccc32)cc1Cl (stereo unspecified) -6.98%
CC(C)C(NS(=O)(=O)c1ccc2c(c1)oc(=O)n2C)C(=O)NCCc1ccccc1 (stereo unspecified) 1.57%
Cc1ccc(C(c2cccc(Br)c2)c2c(C)[nH]c3ccccc23)s1 (stereo unspecified) -8.18%
O=c1c2ccccc2n2c(-c3ccc(Cl)cc3)nnc2n1CCc1ccccc1 -25.4%
O=C(Cn1ncc2c3ccccc3n(Cc3ccc(F)cc3)c2c1=O)NCCC1=CCCCC1 8.98%
Cc1ccc(CNc2ncnc3c2nnn3C)cc1 17.5%
Cc1cn2c(=O)cc(COC(=O)c3cccc(NC(=O)c4ccccc4Cl)c3)nc2s1 7.83%
CCC(CC)c1nn2c(=O)cc(COc3ccc(NC(=O)c4ccc(C)cc4)cc3)nc2s1 5.23%
Cc1c(C(=O)Nc2ccc(C(C)C)cc2)sc2nc3n(c(=O)c12)CCC3 1.82%
Cc1nn(C(=O)c2ccc(Cl)cc2)c(C)c1S(=O)(=O)N1CCOCC1 1.99%
CC(C)(C)OC(=O)N1CCC(c2c(C(=O)N3CCN(c4ccccc4)CC3)cnn2-c2ccccc2)CC1 4.32%
CCOC(=O)c1c(Nc2ccc(F)cc2)nnc(-c2ccccc2)c1-c1ccccc1 59.5%
COc1ccc(-c2nc(SCC(=O)N3CCN(c4ccc(F)cc4)CC3)n[nH]2)cc1 -1.61%
COc1ccc(CCNC(=O)c2ccc3c(c2)N(Cc2cc(C)ccc2C)C(=O)c2ccccc2S3=O)cc1OC (stereo unspecified) -3.18%
O=C(c1ccccc1Cl)N(Cc1ccco1)c1ccccn1 3.22%
CCCN(C(=O)c1cc2ccc3cccnc3c2[nH]1)c1ccc(F)cc1 -3.06%
COC(=O)c1sc2cccc(F)c2c1S(=O)(=O)Nc1ccc(N(C)C)cc1 1.97%
Cc1cc(Br)ccc1NC(=O)Cn1cnc2sc(C)c(S(=O)(=O)N3CCN(C)CC3)c2c1=O 3.98%
CC(=O)N1CCC2(CC1)OC(=O)C(C)=C2C(=O)Nc1cc(C)ccc1C -2%
COc1ccc(CCCc2nnc(SCC(=O)Nc3cc(C)ccc3C)o2)cc1 1.91%
COC(=O)c1ccccc1NC(=O)c1ccc(COc2cc(C)cc(C)c2)o1 -15.9%
CCc1ccc(-c2[nH]nc3nc(-c4ccc(OC)cc4)cc(C(=O)NCCCOC)c23)cc1 1.01%
COc1ccc(Br)c2c1-c1nc(NC(=O)c3ccccc3F)sc1C2 -3.18%
COc1ccc(CNC(=O)Cc2c(C)c3c(cc(C)c4c(C)coc43)oc2=O)cc1OC 7.56%
Cc1nc2cccnc2n1C1CCN(S(=O)(=O)N(C)C)CC1 42.3%
COc1ccc(Cl)cc1NC(=O)Cn1c(=O)n(Cc2cccs2)c(=O)c2cccnc21 7.01%
CC(=O)Nc1ccc(-n2c(CCC(=O)O)ccc2-c2ccc(Br)cc2)cc1 1.18%
CC1=C(C(=O)O)N2C(=O)[C@@H](NC(=O)C(N)c3ccccc3)[C@H]2SC1 (stereo partly specified) 2.42%
Cc1nn(CC(=O)NCc2ccc(N(C)C)cc2)c(=O)c2c(C)n(-c3ccc(Cl)cc3)nc12 -0.961%
Cc1nc2ccc(S(=O)(=O)N(CC(=O)Nc3cccc(Cl)c3)Cc3ccccc3)cc2s1 0.0734%
Cc1cc(NC(=O)c2cc(-c3cccc(Cl)c3)on2)nn1Cc1ccc(Cl)cc1 -2.42%
CCCN(CCC)C(=O)Cn1c(=O)n(-c2ccc(C)c(C)c2)c(=O)c2c3c(sc21)CCCCC3 13.8%
CCOc1ccc(Cn2nnc(C(=O)Nc3cccc(SC)c3)c2N)cc1 7.08%
Cc1ccc(C)c(Cn2c3ccccc3c3cnn(CC(=O)NC4CCC(C)CC4)c(=O)c32)c1 (stereo unspecified) 0.969%
O=C(NCCc1ccccc1)C1CCN(c2ncnc3c2nc2n3CCCCC2)CC1 -2.76%
COC(=O)CN1C(=O)CSc2ccc(S(=O)(=O)Nc3cccc(Br)c3)cc21 -1.14%
Cc1ncc(CO)c2c1Oc1nc(-c3ccc(F)cc3)nc(SCC(=O)N3CCCCC3)c1C2 4.26%
Cc1ccccc1CNC(=O)C1CCN(S(=O)(=O)Cc2ccccc2)CC1 -7.24%
COc1cc(/C=C/c2nc(C#N)c(N3CCCCC3)o2)cc(OC)c1OC -8.65%
CCOc1ccc(-c2nonc2NC(=O)c2ccco2)cc1 -8.33%
CCCCOC(=O)/C(C#N)=C/c1ccc(-c2cccc(C(F)(F)F)c2)o1 1.12%
Cc1nnc(N2CCC(C(=O)Nc3ccc(F)cc3)CC2)c2nn(-c3ccc(Cl)cc3)c(C)c12 6.98%
COc1ccc2c(c1)-c1nc(NC(=O)c3ccc(OC)c(Br)c3)sc1CC2 -3.92%
COc1ccc(OC)c(NC(=O)c2c(NCc3sccc3C)sc3c2CCCCC3)c1 -0.673%
Cc1cccc(-c2noc(CN(C3CCCCC3)S(=O)(=O)c3ccc(F)cc3)n2)c1 1.33%
COc1ccc(NC(=O)CSc2nc3ccccc3nc2N2CCC(C)CC2)cc1 -9.56%
COc1ccc(CNC(=O)CN(c2ccc(C(C)C)cc2)S(=O)(=O)c2c(C)nn(C)c2C)cc1 -9.45%
CCc1ccc(NC(=O)CC2C(=O)N(c3cccc(C)c3)C(=O)N2CCC(C)C)cc1 (stereo unspecified) -1.59%
O=C(CSC1=Nc2ccccc2N=C(c2ccc(F)cc2)C1)Nc1cccc(C(F)(F)F)c1 0.766%
COc1ccccc1OCC(O)COC(N)=O (stereo unspecified) -12.4%
CCC(=O)N1CCc2cc(Br)cc(S(=O)(=O)CCC(=O)N3CCN(c4ccc(F)cc4)CC3)c21 0.878%
Cc1ccccc1OCC(=O)OCc1cc(=O)n2nc(C3CC3)sc2n1 -4.93%
COc1ccccc1NC(=O)CCn1nc(-c2ccccc2OC)c2c(C)cc(C)nc21 -9.32%
Cc1ccccc1NC(=O)Nc1nnc(N2CCCCCC2)s1 -4.97%
Cc1cc(C)c(C)c(OCC(=O)Nc2ccc(S(=O)(=O)Nc3nc(C)cc(C)n3)cc2)c1 1.59%
COc1ccc(CC(=O)NCCc2sc3nc(-c4ccc(OC)cc4)nn3c2C)cc1 -12.7%
O=C(C1CCC1)N1CCCc2cc(S(=O)(=O)N3CCN(c4ccccc4)CC3)ccc21 -0.0792%
COc1cccc(N2CCN(C(=O)C3Cc4ccccc4N3C(C)=O)CC2)c1 (stereo unspecified) 1.64%
CCc1ccc(OCc2cc(=O)n3c4c(sc3n2)CCCC4)cc1 10.2%
Cc1ccc(S(=O)(=O)c2nnn3c2nc(NC(C)C)c2sccc23)cc1 -0.519%
CCC(=O)Nc1ccccc1-c1nc2ccccc2n(CC(=O)c2ccc(Cl)cc2)c1=O -0.097%
CCOC(=O)N1CCc2c(sc(NCc3cccc(F)c3)c2C(=O)Nc2ccc(OC)cc2OC)C1 -1.24%
CCNc1ncnc2c1nnn2C -2.15%
CC(C)OC(=O)C(C(=O)C(F)(F)F)c1cc(NS(=O)(=O)c2ccc3c4c(cccc24)C(=O)N3)ccc1O (stereo unspecified) 6.7%
Cc1cccc(-c2nc3ccccc3n2Cc2ccccc2)c1 9.9%
Nc1ccn([C@@H]2CS[C@H](CO)O2)c(=O)n1 13.4% [at 92.2 µM]
